Measurements: US20090270431A1, “Cyclopentenol Nucleoside Compounds Intermediates for their Synthesis and Methods of Treating Viral Infections” (THE UNIVERSITY OF GEORGIA RESEARCH FOUNDATION, priority 2005, published 2009)
Like-named read-outs stand apart in the source and are kept apart here.

Legend:
Experiment in all cases: microbe, parasite or virus in culture
Format in all cases: cell-based
HBV strain L180M = test system: HBV strain L180M
HBV strain LM/MV = test system: HBV strain LM/MV
HBV strain M2041 = test system: HBV strain M2041
HBV strain M204V = test system: HBV strain M204V
HBV strain N236T = test system: HBV strain N236T
[1] = HBV strain L180M, read-out: EC50
[2] = HBV strain LM/MV, read-out: EC50
[3] = HBV strain LM/MV, read-out: EC90
[4] = HBV strain M2041, read-out: EC50
[5] = HBV strain M2041, read-out: EC90
[6] = HBV strain M204V, read-out: EC50
[7] = HBV strain M204V, read-out: EC90
[8] = HBV strain N236T, read-out: EC50
[9] = HBV strain N236T, read-out: EC90

| SMILES | EC50 (HBV strain L180M; [1]) [µM] | EC90 (HBV strain L180M; HBV strain L180M, read-out: EC90) [µM] | EC50 (HBV strain LM/MV; [2]) [µM] | EC90 (HBV strain LM/MV; [3]) [µM] | EC50 (HBV strain M2041; [4]) [µM] | EC90 (HBV strain M2041; [5]) [µM] | EC50 (HBV strain M204V; [6]) [µM] | EC90 (HBV strain M204V; [7]) [µM] | EC50 (HBV strain N236T; [8]) [µM] | EC90 (HBV strain N236T; [9]) [µM] | EC50 (HBV strain L180M; Hepatitis B virus) [µM] | EC90 (HBV strain L180M; Hepatitis B virus) [µM] | EC50 (HBV strain LM/MV; Hepatitis B virus) [µM] | EC90 (HBV strain LM/MV; Hepatitis B virus) [µM] | EC50 (HBV strain M2041; Hepatitis B virus) [µM] | EC90 (HBV strain M2041; Hepatitis B virus) [µM] | EC50 (HBV strain M204V; Hepatitis B virus) [µM] | EC90 (HBV strain M204V; Hepatitis B virus) [µM] | EC50 (HBV strain N236T; Hepatitis B virus) [µM] | EC90 (HBV strain N236T; Hepatitis B virus) [µM] |
| --- | --- | --- | --- | --- | --- | --- | --- | --- | --- | --- | --- | --- | --- | --- | --- | --- | --- | --- | --- | --- |
| CC(C)(C)C(=O)OCOP(=O)(COCCn1cnc2c(N)ncnc21)OCOC(=O)C(C)(C)C [ADV] | 1.6 | 6.8 | 1.2 | 6.1 | 1.8 | 7 | 1.5 | 6.3 | 7.7 | 30 | – | – | – | – | – | – | – | – | – | – |
| Nc1ccn([C@@H]2CS[C@H](CO)O2)c(=O)n1 [Compound 3TC] | 10 | – | > 100 | > 100 | > 100 | > 100 | > 100 | > 100 | 0.3 | 0.8 | – | – | – | – | – | – | – | – | – | – |
| C#Cc1cn([C@@H]2C=C(CO)C(O)C2O)c2ncnc(N)c12 (some centres unmarked) [Compound 27, 7-Deaza-7-Acetylene-Neplanocin A] | – | – | – | – | – | – | – | – | – | – | 2 | 8.2 | 2.8 | 9 | 3 | 9.5 | 2.1 | 8.9 | 5.6 | 16 |
